According to the supplement of paper PMC4967469:
A lower IC50 marks a more sensitive line; a limit (>, <) means that the fit lies beyond the doses tested. AUC sums up the same curve from the lowest dose to the 256-fold higher top dose; the more sensitive the line, the further below 1. For some of these results: A top dose marked as inferred was calculated from the reported fits. For some of these results: Drugs with an entry number were screened twice under separate entries, and the two screens often disagree.

Tests used:
Assay in all cases: Viability of human cancer cell lines after 72 h of drug (GDSC screen)
(5Z)-7-Oxozeaenol = compound: COc1cc(O)c2c(c1)/C=C/C[C@H](O)[C@H](O)C(=O)/C=C\C[C@H](C)OC2=O [(5Z)-7-Oxozeaenol]; conditions: top dose 10 µM; top dose inferred
Experimental: (§1)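 Human cancer cell lines in 384-well plates, medium with 10% serum, drug for 72 h over a 256-fold dose range (nine 2-fold or five 4-fold steps up to the top dose). Adherent lines were fixed and stained with the nucleic acid dye Syto60, suspension lines read with resazurin; signal relative to control wells, capped at 0 and 100%. One two-parameter sigmoid per drug and line, fitted in a mixed model over all curves with the slope shared within a line.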

GSK269962A = compound: CCn1c(-c2nonc2N)nc2cnc(Oc3cccc(NC(=O)c4ccc(OCCN5CCOCC5)cc4)c3)cc21 [GSK269962A]; conditions: top dose 5 µM; screen: GDSC drug entry 1192; top dose inferred
Experimental: as §1

CHIR-99021 = compound: Cc1cnc(-c2cnc(NCCNc3ccc(C#N)cn3)nc2-c2ccc(Cl)cc2Cl)[nH]1 [CHIR-99021]
Experimental: as §1

QL-X-138 = compound: C=CC(=O)Nc1cc(-n2c(=O)ccc3cnc4ccc(-c5cn[nH]c5)cc4c32)ccc1C [QL-X-138]; conditions: top dose 10.24 µM; top dose inferred
Experimental: as §1

KU-55933 = compound: O=c1cc(-c2cccc3c2Sc2ccccc2S3)oc(N2CCOCC2)c1 [KU-55933]; conditions: top dose 10 µM
Experimental: as §1

CP466722 = compound: COc1cc2ncnc(-n3nc(-c4ccccn4)nc3N)c2cc1OC [CP466722]; conditions: top dose 16 µM; top dose inferred
Experimental: as §1

ABT-869 = compound: Cc1ccc(F)c(NC(=O)Nc2ccc(-c3cccc4[nH]nc(N)c34)cc2)c1 [ABT-869]; conditions: top dose 1.024 µM; top dose inferred
Experimental: as §1

Zibotentan = compound: COc1nc(C)cnc1NS(=O)(=O)c1cccnc1-c1ccc(-c2nnco2)cc1 [Zibotentan]; conditions: top dose 20 µM; top dose inferred
Experimental: as §1

Thapsigargin = compound: C/C=C(/C)C(=O)O[C@H]1C(C)=C2[C@H]([C@@H]1OC(=O)CCCCCCC)[C@@](C)(OC(C)=O)C[C@H](OC(=O)CCC)[C@@]1(O)[C@H]2OC(=O)[C@@]1(C)O [Thapsigargin]; conditions: top dose 0.512 µM; top dose inferred
Experimental: as §1

MPS-1-IN-1 = compound: COc1cc(N2CCC(O)CC2)ccc1Nc1cc(Nc2ccccc2S(=O)(=O)C(C)C)c2cc[nH]c2n1 [MPS-1-IN-1]; conditions: top dose 20 µM; top dose inferred
Experimental: as §1

ABT-888 = compound: C[C@]1(c2nc3c(C(N)=O)cccc3[nH]2)CCCN1 [ABT-888]; conditions: top dose 5 µM; top dose inferred
Experimental: as §1

[1] = top dose 2.56 µM, screen: GDSC drug entry 154
[2] = top dose 10 µM, screen: GDSC drug entry 1241, top dose inferred

Cell Line	AUC ((5Z)-7-Oxozeaenol)	IC50 ((5Z)-7-Oxozeaenol) [µM]	AUC (GSK269962A)	IC50 (GSK269962A) [µM]	AUC (CHIR-99021; [1])	IC50 (CHIR-99021; [1]) [µM]	AUC (CHIR-99021; [2])	IC50 (CHIR-99021; [2]) [µM]	AUC (QL-X-138)	IC50 (QL-X-138) [µM]	AUC (KU-55933)	IC50 (KU-55933) [µM]	AUC (CP466722)	IC50 (CP466722) [µM]	AUC (ABT-869)	IC50 (ABT-869) [µM]	AUC (Zibotentan)	IC50 (Zibotentan) [µM]	AUC (Thapsigargin)	IC50 (Thapsigargin) [µM]	AUC (MPS-1-IN-1)	IC50 (MPS-1-IN-1) [µM]	AUC (ABT-888)	IC50 (ABT-888) [µM]
OSC-19 (head and neck, adherent)	0.652	1.68	0.901	> 5	0.987	> 2.56	0.985	> 10	0.878	> 10.2	0.932	> 10	0.9	> 16	0.983	> 1.02	0.986	> 20	0.149	0.00246	0.91	> 20		
OVCAR-3 (ovary, adherent)	0.78	4.57	0.94	> 5	0.983	> 2.56	0.86	9.78	0.987	> 10.2	0.98	> 10	0.942	> 16	0.986	> 1.02	0.984	> 20	0.233	0.00488	0.987	> 20		
PANC-10-05 (pancreas, adherent)	0.701	2.74	0.886	> 5	0.932	> 2.56	0.933	> 10	0.619	1.5	0.972	> 10	0.791	9.54	0.979	> 1.02	0.979	> 20	0.269	0.00574	0.903	> 20		
PC-3 (prostate, adherent)	0.811	6.83	0.87	> 5	0.978	> 2.56	0.946	> 10	0.553	0.92	0.917	> 10	0.832	13.4	0.979	> 1.02	0.98	> 20	0.303	0.00782	0.935	> 20		
RERF-GC-1B (stomach, adherent)	0.725	2.96	0.819	3.29	0.98	> 2.56	0.983	> 10	0.766	4.21	0.984	> 10	0.913	> 16	0.974	> 1.02	0.977	> 20	0.46	0.0246	0.763	7.99		
SK-LU-1 (lung adenocarcinoma, adherent)	0.717	3.08	0.809	3.52	0.98	> 2.56	0.973	> 10	0.729	3.5	0.92	> 10	0.781	8.61	0.969	> 1.02	0.98	> 20	0.165	0.00216	0.954	> 20		
SK-MEL-28 (melanoma, adherent)	0.175	0.0666	0.987	> 5	0.947	> 2.56	0.97	> 10	0.765	3.67	0.876	9.65	0.902	> 16	0.988	> 1.02	0.986	> 20	0.929	> 0.512	0.905	> 20		
SW900 (lung squamous cell carcinoma, adherent)	0.714	2.8	0.914	> 5	0.877	> 2.56	0.83	7.75	0.898	> 10.2	0.975	> 10	0.887	> 16	0.969	> 1.02	0.981	> 20	0.483	0.0285	0.944	> 20		
TCCSUP (bladder, adherent)	0.649	1.73	0.904	> 5	0.982	> 2.56	0.935	> 10	0.804	5.98	0.965	> 10	0.923	> 16	0.984	> 1.02	0.982	> 20	0.532	0.0396	0.981	> 20		
U031 (kidney, adherent)	0.496	0.608	0.619	0.671	0.975	> 2.56	0.707	2.46	0.759	3.69	0.913	> 10	0.788	7.28	0.98	> 1.02	0.983	> 20	0.553	0.0448	0.845	15.3		
U-2-OS (osteosarcoma, adherent)	0.55	0.867	0.879	> 5	0.913	> 2.56	0.943	> 10	0.976	> 10.2			0.952	> 16	0.971	> 1.02	0.98	> 20	0.501	0.0321			0.977	> 5
VM-CUB-1 (bladder, adherent)	0.606	1.21	0.747	1.55	0.988	> 2.56	0.967	> 10	0.95	> 10.2	0.894	> 10	0.957	> 16	0.988	> 1.02	0.989	> 20	0.394	0.0166	0.969	> 20		
